These results are taken from article PMC10730550.

The target of assay [1] is T1, GST fusion of human NDP52 (HEK293T) (human) (UniProt Q13137).
T1 sequence: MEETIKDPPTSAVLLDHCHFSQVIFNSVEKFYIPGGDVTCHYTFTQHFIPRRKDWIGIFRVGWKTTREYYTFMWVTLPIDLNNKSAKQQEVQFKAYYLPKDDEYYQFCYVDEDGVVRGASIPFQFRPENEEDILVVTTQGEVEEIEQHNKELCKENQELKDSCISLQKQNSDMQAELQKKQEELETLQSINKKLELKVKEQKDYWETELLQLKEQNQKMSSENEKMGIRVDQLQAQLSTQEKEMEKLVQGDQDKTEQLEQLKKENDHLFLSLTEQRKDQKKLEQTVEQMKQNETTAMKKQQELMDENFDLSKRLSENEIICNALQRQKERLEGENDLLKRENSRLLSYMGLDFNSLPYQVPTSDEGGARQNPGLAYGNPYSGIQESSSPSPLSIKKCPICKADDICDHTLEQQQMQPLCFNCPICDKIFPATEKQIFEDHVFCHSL
The assay is described as follows: pull-down; GST beads on NP-40 lysates of HEK293T cells co-transfected with GST or GST-NDP52 and Flag-tagged envelope constructs, 4 °C for 8 h, Western blot.

Assay [2] has as its target T2, endogenous NDP52 (Huh7 cells) (human (endogenous in Huh7)) (UniProt Q13137).
T2 sequence: T1 sequence
Kind of assay: co-IP.

Assay [3] deals with T3, Flag-tagged NDP52 full length (UniProt Q13137).
T3 sequence: T1 sequence
Kind of assay: co-IP; Flag precipitation from lysates of HEK293T cells co-transfected with Flag-tagged NDP52 full length or truncations and HA-tagged M; Western blot. A general note: In western blotting, separated proteins are transferred to a membrane and probed.

Assay [4] addresses T4, endogenous NDP52 (HepAD38 cells) (human (endogenous in HepAD38)) (UniProt Q13137).
T4 sequence: T1 sequence
The assay is described as follows: co-IP; anti-NDP52 antibody on lysates of HepAD38 cells without doxycycline (replicating HBV); Western blot.

Results are given in words; binding and its absence hold for the method and conditions named. Binding seen in cells or lysates may run through a third protein. Some results given as binding are weak or reduced against the parent protein; the word gives no strength. For some of these results: Sequences can lack the tags named with a protein.

For “3xFlag-tagged HBV L envelope protein (HEK293T) (from UniProt P03138 1-389)”, in assay [1], the binding result is “binds”.
“3xFlag-tagged HBV L envelope protein (Huh7) (from UniProt P03138 1-389)”: the binding result in assay [2] is “binds”.
Take “3xFlag-tagged HBV M envelope protein (HEK293T) (from UniProt P03138-2 1-281)”: in assay [1], the binding result is recorded as “binds”.
On to “3xFlag-tagged HBV M envelope protein (Huh7) (from UniProt P03138-2 1-281)”, for which the binding entry in assay [2] is on record as “binds”.
With “3xFlag-tagged HBV S envelope protein (HEK293T) (from UniProt P03138-3 1-226)”, in assay [1], the binding entry is “no binding”.
Turning to “3xFlag-tagged HBV S envelope protein (Huh7) (from UniProt P03138-3 1-226)”, the binding entry in assay [2] was “no binding”.
As for “HA-tagged M envelope protein (from UniProt P03138-2 1-281)”, the binding entry in assay [3] was “binds”.
Regarding “HBV L envelope protein expressed in HepAD38 cells (from UniProt P03138 1-389)”, the binding result in assay [4] is “binds”.
The same measure, in the same setting: then “HBV M envelope protein expressed in HepAD38 cells (from UniProt P03138-2 1-281)”, with “binds”.
Same read-out and setting: to “HBV S envelope protein expressed in HepAD38 cells (from UniProt P03138-3 1-226)” belongs “no binding”.
